The results in this text go back to paper PMC11410653.

The chains behind the UniProt entries cited, without tags or fusion partners. Where a name states a change or a piece, a line headed by the entry shows the natural chain unless it says otherwise. Residues count along the entry.
UniProt P54609, residues 191-809: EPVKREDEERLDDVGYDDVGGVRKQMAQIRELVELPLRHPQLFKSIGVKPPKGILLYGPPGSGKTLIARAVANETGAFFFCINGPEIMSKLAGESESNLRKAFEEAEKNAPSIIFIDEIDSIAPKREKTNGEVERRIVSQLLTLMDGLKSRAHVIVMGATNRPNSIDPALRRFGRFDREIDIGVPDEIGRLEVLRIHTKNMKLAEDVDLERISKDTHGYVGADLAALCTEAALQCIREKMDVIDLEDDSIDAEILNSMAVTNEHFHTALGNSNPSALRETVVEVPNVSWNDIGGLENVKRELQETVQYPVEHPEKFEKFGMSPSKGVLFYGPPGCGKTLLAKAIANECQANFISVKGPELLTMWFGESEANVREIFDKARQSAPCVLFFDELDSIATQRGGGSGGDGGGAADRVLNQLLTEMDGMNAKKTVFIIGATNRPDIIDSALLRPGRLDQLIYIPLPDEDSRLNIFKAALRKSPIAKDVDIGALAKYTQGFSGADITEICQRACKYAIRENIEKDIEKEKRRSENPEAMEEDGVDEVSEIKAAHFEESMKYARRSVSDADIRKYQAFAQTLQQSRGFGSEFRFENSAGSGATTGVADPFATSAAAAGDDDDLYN
UniProt Q8H159, residues 1-76: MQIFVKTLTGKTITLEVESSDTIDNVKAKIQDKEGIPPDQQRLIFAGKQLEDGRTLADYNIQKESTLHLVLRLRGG
UniProt O81283: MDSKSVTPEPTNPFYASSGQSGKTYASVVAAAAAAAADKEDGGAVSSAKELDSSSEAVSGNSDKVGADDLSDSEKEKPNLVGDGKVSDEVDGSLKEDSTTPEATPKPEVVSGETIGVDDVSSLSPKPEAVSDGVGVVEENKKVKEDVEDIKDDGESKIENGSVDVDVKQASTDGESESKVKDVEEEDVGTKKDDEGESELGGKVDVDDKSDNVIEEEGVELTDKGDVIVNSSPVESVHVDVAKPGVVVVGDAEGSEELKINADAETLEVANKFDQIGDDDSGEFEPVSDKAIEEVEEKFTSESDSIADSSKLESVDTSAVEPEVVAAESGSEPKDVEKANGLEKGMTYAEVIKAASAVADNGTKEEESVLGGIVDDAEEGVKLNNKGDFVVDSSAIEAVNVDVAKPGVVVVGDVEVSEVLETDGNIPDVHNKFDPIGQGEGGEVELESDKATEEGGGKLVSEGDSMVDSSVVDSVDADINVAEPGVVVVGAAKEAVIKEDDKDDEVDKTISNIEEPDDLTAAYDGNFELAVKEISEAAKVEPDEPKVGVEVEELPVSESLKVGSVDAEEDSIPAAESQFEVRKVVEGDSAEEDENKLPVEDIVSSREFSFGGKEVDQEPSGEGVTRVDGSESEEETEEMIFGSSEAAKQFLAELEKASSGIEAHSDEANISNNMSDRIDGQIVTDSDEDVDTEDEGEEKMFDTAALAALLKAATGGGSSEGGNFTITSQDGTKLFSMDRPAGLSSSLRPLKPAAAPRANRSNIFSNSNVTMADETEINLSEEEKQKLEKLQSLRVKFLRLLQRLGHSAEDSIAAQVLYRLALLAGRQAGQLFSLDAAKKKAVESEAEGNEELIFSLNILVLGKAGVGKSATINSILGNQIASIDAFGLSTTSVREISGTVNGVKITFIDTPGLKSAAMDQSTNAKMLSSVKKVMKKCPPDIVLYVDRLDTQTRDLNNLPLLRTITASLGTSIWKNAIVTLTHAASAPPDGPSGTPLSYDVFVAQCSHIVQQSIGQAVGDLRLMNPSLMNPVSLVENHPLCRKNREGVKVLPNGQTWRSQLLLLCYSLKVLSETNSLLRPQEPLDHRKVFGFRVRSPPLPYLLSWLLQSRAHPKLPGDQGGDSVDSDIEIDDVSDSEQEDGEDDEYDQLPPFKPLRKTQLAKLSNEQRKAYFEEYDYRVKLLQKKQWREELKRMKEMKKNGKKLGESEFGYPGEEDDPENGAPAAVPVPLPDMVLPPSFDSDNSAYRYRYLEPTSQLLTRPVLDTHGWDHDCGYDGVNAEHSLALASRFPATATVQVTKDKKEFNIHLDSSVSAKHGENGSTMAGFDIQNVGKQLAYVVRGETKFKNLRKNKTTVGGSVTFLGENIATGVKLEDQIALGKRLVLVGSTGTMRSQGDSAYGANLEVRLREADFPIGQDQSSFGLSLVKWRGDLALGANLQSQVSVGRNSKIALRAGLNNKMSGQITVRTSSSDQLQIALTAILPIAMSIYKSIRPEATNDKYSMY
UniProt Q9SLF3: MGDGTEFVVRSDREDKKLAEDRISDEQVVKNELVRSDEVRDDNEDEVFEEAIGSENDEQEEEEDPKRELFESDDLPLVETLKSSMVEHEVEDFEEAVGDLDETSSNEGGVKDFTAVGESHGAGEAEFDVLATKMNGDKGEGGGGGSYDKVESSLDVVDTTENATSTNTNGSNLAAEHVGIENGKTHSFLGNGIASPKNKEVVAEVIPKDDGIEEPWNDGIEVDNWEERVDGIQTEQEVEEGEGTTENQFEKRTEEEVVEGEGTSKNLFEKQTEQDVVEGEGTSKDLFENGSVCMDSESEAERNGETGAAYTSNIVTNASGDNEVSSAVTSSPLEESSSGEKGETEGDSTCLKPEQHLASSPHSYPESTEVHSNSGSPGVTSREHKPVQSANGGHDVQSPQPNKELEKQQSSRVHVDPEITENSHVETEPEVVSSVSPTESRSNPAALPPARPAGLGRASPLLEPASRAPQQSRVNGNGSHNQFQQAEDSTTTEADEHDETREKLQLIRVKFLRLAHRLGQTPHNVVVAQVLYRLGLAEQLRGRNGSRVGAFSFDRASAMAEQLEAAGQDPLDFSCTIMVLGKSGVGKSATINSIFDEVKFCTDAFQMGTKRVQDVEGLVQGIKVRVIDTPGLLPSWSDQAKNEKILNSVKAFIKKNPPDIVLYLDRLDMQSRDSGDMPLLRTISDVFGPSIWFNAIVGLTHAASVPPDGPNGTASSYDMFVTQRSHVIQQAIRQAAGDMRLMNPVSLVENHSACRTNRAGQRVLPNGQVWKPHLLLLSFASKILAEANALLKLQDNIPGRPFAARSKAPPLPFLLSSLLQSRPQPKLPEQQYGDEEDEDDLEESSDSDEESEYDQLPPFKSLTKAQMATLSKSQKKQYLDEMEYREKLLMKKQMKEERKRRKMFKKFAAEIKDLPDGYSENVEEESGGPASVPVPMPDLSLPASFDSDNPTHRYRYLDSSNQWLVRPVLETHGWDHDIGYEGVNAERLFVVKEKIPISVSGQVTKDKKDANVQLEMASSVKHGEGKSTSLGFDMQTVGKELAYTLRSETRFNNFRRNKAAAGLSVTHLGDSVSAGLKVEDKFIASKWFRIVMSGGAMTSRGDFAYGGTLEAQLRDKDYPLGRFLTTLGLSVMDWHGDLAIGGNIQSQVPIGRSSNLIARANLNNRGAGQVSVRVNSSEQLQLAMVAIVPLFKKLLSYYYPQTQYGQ

For test [1], the target named is T1, PUX10–YFP (A. thaliana) (UniProt Q9M0N1).
T1 sequence: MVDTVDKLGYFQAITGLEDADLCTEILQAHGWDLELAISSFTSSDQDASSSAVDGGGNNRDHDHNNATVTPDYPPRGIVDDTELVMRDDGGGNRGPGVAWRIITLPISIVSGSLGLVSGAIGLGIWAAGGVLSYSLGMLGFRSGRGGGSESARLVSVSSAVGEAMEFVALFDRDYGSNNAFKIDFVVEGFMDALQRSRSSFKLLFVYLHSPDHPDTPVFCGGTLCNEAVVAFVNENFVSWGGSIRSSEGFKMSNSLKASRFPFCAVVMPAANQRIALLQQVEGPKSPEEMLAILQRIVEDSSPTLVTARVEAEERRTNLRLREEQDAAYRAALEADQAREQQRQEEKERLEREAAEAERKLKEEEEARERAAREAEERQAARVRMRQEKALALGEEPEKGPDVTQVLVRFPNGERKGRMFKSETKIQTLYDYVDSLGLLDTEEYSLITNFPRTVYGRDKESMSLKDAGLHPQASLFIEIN
The test is described as follows: co-IP; YFP-tagged bait precipitated with GFP-Trap Magnetic Agarose from solubilised protoplasts; 25 mM Tris-HCl pH 7.5, 150 mM NaCl, 1 mM EDTA, 1% Triton X-100; 4 °C; immunoblot of prey.

The next test has as its target T2, PUX10–nYFP (A. thaliana) (UniProt Q9M0N1).
T2 sequence: T1 sequence
Kind of test: split reporter; one nYFP fusion and one cYFP fusion (pSATN system, EYFP split between residues 174 and 175) co-transfected into WT Arabidopsis protoplasts; overnight incubation; reconstituted YFP by confocal imaging.

Test [2] concerns the target T1, PUX10–YFP (A. thaliana). Kind of test: co-IP; YFP-tagged bait precipitated with GFP-Trap Magnetic Agarose from solubilised protoplasts; 25 mM Tris-HCl pH 7.5, 150 mM NaCl, 1 mM EDTA, 1% Triton X-100; 4 °C; immunoblot of prey. This is another data set of the same source. For orientation: A western blot detects proteins with antibodies after separation by electrophoresis.

Another test deals with T3, SP1–nYFP (A. thaliana) (UniProt Q8L7N4).
T3 sequence: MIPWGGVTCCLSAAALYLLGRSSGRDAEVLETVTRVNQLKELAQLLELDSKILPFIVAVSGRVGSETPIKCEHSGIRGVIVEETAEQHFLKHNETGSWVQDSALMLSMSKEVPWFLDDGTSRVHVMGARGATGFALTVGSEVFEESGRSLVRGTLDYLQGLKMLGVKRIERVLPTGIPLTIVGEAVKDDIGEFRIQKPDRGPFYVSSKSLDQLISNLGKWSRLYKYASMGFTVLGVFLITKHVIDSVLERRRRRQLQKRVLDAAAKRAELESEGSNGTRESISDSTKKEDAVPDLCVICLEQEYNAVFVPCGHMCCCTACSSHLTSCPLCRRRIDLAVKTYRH
The test is described as follows: split reporter; one nYFP fusion and one cYFP fusion (pSATN system, EYFP split between residues 174 and 175) co-transfected into WT Arabidopsis protoplasts; overnight incubation; reconstituted YFP by confocal imaging.

For another test, the target named is T4, SP1–MYC (A. thaliana) (UniProt Q8L7N4).
T4 sequence: T3 sequence
The test is described as follows: co-IP; MYC-tagged bait precipitated with EZview Red Anti-c-Myc Affinity Gel from solubilised protoplasts; 25 mM Tris-HCl pH 7.5, 150 mM NaCl, 1 mM EDTA, 1% Triton X-100; 4 °C; anti-GFP immunoblot of prey.

Where two headings read alike, the source gives them in different places. Results are given in words; binding and its absence hold for the method and conditions named. Binding seen in cells or lysates may run through a third protein. Some results given as binding are weak or reduced against the parent protein; the word gives no strength. Where a sequence is shown, tags or fusion partners need not be part of it.

For “Cdc48(∆Nterm)–HA (from UniProt P54609 191-809) (domain or fragment)”, the binding entry with PUX10–YFP (A. thaliana) [1] was “no binding”.
With FLAG–Ub (from UniProt Q8H159 1-76), the binding entry with PUX10–YFP (A. thaliana) [1] is reported as “binds”.
Consider “TOC159 (endogenous) (from UniProt O81283 1-1503)”, for which the binding result with PUX10–YFP (A. thaliana) [1] is recorded as “binds”.
With “cYFP–TOC132 (from UniProt Q9SLF3 1-1206)”, in the test with PUX10–nYFP (A. thaliana), the binding entry is “binds”.
On to “cYFP–TOC159 (from UniProt O81283 1-1503)”, for which the binding entry in the test with PUX10–nYFP (A. thaliana) is “binds”.

B1: cYFP–TOC34 (protein, UniProt Q38906 1-313)
chain: MAALQTLREWIGIQQFPPATQSKLLEILGKYKEEDVSSLTVLVMGKGGVGKSSTVNSVIGEKAAAVSTFQSEGLRPTLVSRTRSGFTLNIIDTPGLIEGGYVNDQAINIIKRFLLNMTIDVLLYVDRLDVYRVDDLDRQVVGAITDAFGKEIWKKSALVLTHAQFSPPDGLNYNHFVSKRSNALLKVIQTGAQLKKQDLQGFSIPVILVENSGRCHKNESDEKILPCGTSWIPNLFNKITEISFNGNKAIHVDKKLVEGPNPNERGKKLIPLMFAFQYLLVMKPLVRAIKSDVSRESKPAWELRDSGLASRRS
Turning to B1, the binding entry in the test with PUX10–nYFP (A. thaliana) was “binds”.

B2: TOC33 (endogenous) (protein, UniProt O23680 1-297)
chain: MGSLVREWVGFQQFPAATQEKLIEFFGKLKQKDMNSMTVLVLGKGGVGKSSTVNSLIGEQVVRVSPFQAEGLRPVMVSRTMGGFTINIIDTPGLVEAGYVNHQALELIKGFLVNRTIDVLLYVDRLDVYRVDELDKQVVIAITQTFGKEIWCKTLLVLTHAQFSPPDELSYETFSSKRSDSLLKTIRAGSKMRKQEFEDSAIAVVYAENSGRCSKNDKDEKALPNGEAWIPNLVKAITDVATNQRKAIHVDKKMVDGSYSDDKGKKLIPLIIGAQYLIVKMIQGAIRNDIKTSGKPL
B2: the binding result with PUX10–YFP (A. thaliana) [2] is reported as “binds”.

B3: cYFP–TOC33 (protein, UniProt O23680 1-297)
chain: B2 chain
On to B3, for which, in the test with PUX10–nYFP (A. thaliana), the binding entry is on record as “binds”.

B4: SP2–MYC (protein, UniProt Q5PP51 1-362)
chain: MGAQKSIHAGRAKIDVNVDFTHKLCTSLMFPAFRDTSSPLSLVIGSLCIKHPNLFGGSEKLDVSWDKGLYDSNVLVAFRRPRPEWRPQQCFFIQHSLSPEIGVHGTPVDNFSRSGSGGVNLSKLALGLDLSEPASSKWSSTTSIKFEHVRPINDDGRAITRDLDGFPITCSGNTHDSMVVLKQESRFAKATDQGLSHFSMQIEQGIPVVSKWLIFNRFKFVASKGVRFGPAFLLASLTGGSIVGDMAPYQAFAIGGLGSVRGYGEGAVGSGRSCLVANTELALPLNKMTEGTIFLDCGTDLGSSRLVPGNPSMRQGKPGFGYGFGYGLRFKSPLGHLQVDYAINAFNQKTLYFGVTNLASST
On to B4, for which the binding result in the test with PUX10–YFP (A. thaliana) [2] is reported as “binds”.

B5: PUX10–cYFP (protein, UniProt Q9M0N1 1-480)
chain: T1 sequence
As to B5, the binding entry with SP1–nYFP (A. thaliana) was “binds”.

B6: PUX10–YFP (protein, UniProt Q9M0N1 1-480)
chain: T1 sequence
Turning to B6, in the test with SP1–MYC (A. thaliana), the binding entry is recorded as “binds”.

B7: TOC75 (endogenous) (protein, UniProt Q9STE8 141-818)
chain: DEEQSPDWDSHGLPANIVVQLNKLSGFKKYKVSDIMFFDRRRQTTIGTEDSFFEMVSIRPGGVYTKAQLQKELETLATCGMFEKVDLEGKTKPDGTLGVTISFAESTWQSADRFRCINVGLMVQSKPIEMDSDMTDKEKLEYYRSLEKDYKRRIDRARPCLLPAPVYGEVMQMLRDQGKVSARLLQRIRDRVQKWYHDEGYACAQVVNFGNLNTKEVVCEVVEGDITQLVIQFQDKLGNVVEGNTQVPVVRRELPKQLRQGYVFNIEAGKKALSNINSLGLFSNIEVNPRPDEKNEGGIIVEIKLKELEQKSAEVSTEWSIVPGRGGAPTLASFQPGGSVTFEHRNLQGLNRSLMGSVTTSNFLNPQDDLSFKLEYVHPYLDGVYNPRNRTFKTSCFNSRKLSPVFTGGPGVEEVPPIWVDRAGVKANITENFTRQSKFTYGLVMEEITTRDESSHIAANGQRLLPSGGISADGPPTTLSGTGVDRMAFLQANITRDNTKFVNGAVVGQRTVFQVDQGLGIGSKFPFFNRHQLTMTKFIQLREVEQGAGKSPPPVLVLHGHYGGCVGDLPSYDAFVLGGPYSVRGYNMGELGAARNIAEVGAEIRIPVKNTHVYAFVEHGNDLGSSKDVKGNPTAVYRRTGQGSSYGAGVKLGLVRAEYAVDHNNGTGALFFRFGERY
With B7, in the test with PUX10–YFP (A. thaliana) [2], the binding entry is recorded as “binds”.
